Laboratory results from the supplement of paper PMC3334620.
The full ranking holds about 33,000 sequences; the median of “E-score (-0.5 to 0.5)” is about -0.021, and the highest 2% start at about 0.32. The list shows a part of the results.

molecular target: T1, Zap1 (UniProt P47043); assay: PBM E-score (8-mer binding enrichment) (E-score (-0.5 to 0.5)); higher = stronger / more preferred TF binding; most listed sequences are background and not binding sites; details: protein concentration: 200 nM; construct: GST-full length
T1 sequence: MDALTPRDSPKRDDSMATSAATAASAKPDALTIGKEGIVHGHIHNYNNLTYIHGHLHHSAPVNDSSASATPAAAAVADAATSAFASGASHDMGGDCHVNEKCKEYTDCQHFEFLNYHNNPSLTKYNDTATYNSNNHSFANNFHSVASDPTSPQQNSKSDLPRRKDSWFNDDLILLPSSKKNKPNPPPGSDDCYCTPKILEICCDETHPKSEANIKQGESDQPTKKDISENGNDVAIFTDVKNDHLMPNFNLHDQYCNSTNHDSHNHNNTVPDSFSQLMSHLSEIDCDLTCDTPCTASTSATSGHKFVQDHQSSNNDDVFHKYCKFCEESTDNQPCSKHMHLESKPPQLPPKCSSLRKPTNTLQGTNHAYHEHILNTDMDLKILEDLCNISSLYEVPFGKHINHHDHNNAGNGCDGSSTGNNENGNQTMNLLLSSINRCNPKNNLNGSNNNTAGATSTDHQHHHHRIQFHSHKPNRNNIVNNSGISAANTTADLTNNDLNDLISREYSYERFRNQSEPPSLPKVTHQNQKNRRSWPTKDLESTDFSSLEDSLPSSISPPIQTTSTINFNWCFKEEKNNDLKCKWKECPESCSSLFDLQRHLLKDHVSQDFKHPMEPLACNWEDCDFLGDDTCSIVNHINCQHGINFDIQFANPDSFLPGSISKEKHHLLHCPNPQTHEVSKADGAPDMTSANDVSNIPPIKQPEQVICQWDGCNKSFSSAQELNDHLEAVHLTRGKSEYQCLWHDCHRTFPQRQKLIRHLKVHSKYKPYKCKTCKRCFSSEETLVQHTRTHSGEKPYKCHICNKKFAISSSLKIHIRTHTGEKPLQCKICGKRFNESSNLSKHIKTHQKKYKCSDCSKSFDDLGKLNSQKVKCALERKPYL
Method in brief: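 Detection of bound protein used fluorescent anti-GST, with scans normalised by masliner. The proteins were GST-tagged yeast transcription factors applied at about 100-200 nM to universal all-10-mer Agilent arrays made double-stranded by primer extension. Each ungapped eight-base word, pooled with its reverse complement, was scored with an E-score from the Universal PBM Analysis Suite.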

Compared with AGGTTGGG, CCGTCAAC is lower in “PBM E-score” value: 0.232 for the first, -0.157 for the second.

Compared with AATCCACA, CACCCCAG is higher in “PBM E-score” value: 0.0186 for the first, 0.118 for the second.

Going from AATATCCA to AGTATGAC, the “PBM E-score” value falls from 0.124 to 0.0472.

Compared with TCACCCCA, AAAATGTG is lower in “PBM E-score” value: 0.249 for the first, -0.0329 for the second.

First: CCGTGATA
Second: GCGATGAC
The “PBM E-score” value of the first is lower: 0.0343 for the first, 0.0689 for the second.

First: GAGTGGAC
Second: GATTTCCA
The “PBM E-score” value of the first is lower: -0.0822 for the first, 0.012 for the second.

First: ATAGCTGA
Second: AAACCAGG
The “PBM E-score” value of the first is lower: -0.0341 for the first, 0.162 for the second.

Compared with ACCCTCAC, GGAAGATA is lower in “PBM E-score” value: 0.251 for the first, 0.0199 for the second.

First: CGCACCTC
Second: AAGCTAGA
The “PBM E-score” value of the first is lower: -0.145 for the first, -0.137 for the second.

Going from CAGTTGCA to GTAGCAAA, the “PBM E-score” value rises from -0.107 to -0.0914.

Compared with CATGTTAC, TAGCGTCA is lower in “PBM E-score” value: -0.019 for the first, -0.097 for the second.

Going from CCGGCCGA to CCATAGCC, the “PBM E-score” value falls from 0.0494 to -0.159.

Compared with CAGCCCCG, CACTCTTC is lower in “PBM E-score” value: -0.0674 for the first, -0.159 for the second.

First: ATCGGCAT
Second: GTTAATGA
The “PBM E-score” value of the first is lower: 0.0012 for the first, 0.135 for the second.

First: CGACAGCC
Second: AAGACATC
The “PBM E-score” value of the first is lower: -0.215 for the first, -0.199 for the second.

Compared with CACGCAGG, CAACCCGG is higher in “PBM E-score” value: 0.0824 for the first, 0.213 for the second.

Compared with ATAGTAAA, TGATCAAA is lower in “PBM E-score” value: 0.105 for the first, 0.0723 for the second.

First: GAAATAGC
Second: AACCGCCA
The “PBM E-score” value of the first is lower: 0.103 for the first, 0.148 for the second.

Going from CGTTACCC to CTGCGGCA, the “PBM E-score” value falls from 0.258 to -0.251.

First: CCAGTCAC
Second: GTTTCAGA
The “PBM E-score” value of the first is lower: -0.194 for the first, -0.104 for the second.

Compared with GACGTACA, ACCCAAGA is higher in “PBM E-score” value: 0.00824 for the first, 0.152 for the second.

First: AGAGAGTC
Second: AGCGAGCC
The “PBM E-score” value of the first is lower: -0.0905 for the first, -0.0795 for the second.

Compared with CCGTCGGC, AAAATTGC is higher in “PBM E-score” value: -0.154 for the first, 0.0619 for the second.

Going from CATCGAGA to CGACCGAG, the “PBM E-score” value falls from -0.112 to -0.21.

Compared with GTGGGAGA, CAACTTGC is higher in “PBM E-score” value: -0.362 for the first, -0.24 for the second.

Going from CAATGGTG to ATGGTTCC, the “PBM E-score” value rises from -0.183 to 0.21.

Going from CGCGCACA to AAAATGTC, the “PBM E-score” value rises from -0.098 to 0.0833.

Compared with AGCTCTGG, ACTCCGAC is higher in “PBM E-score” value: -0.154 for the first, -0.0586 for the second.

Compared with ATGCTAAC, CCACCTAA is lower in “PBM E-score” value: 0.0482 for the first, -0.00966 for the second.

First: AGACCGCT
Second: ACGGGTGG
The “PBM E-score” value of the first is lower: -0.00371 for the first, 0.198 for the second.

Compared with CATAACAA, CTCAGAAG is lower in “PBM E-score” value: 0.179 for the first, 0.0412 for the second.

Going from GTGGGCAA to AAGTCGCC, the “PBM E-score” value falls from -0.0918 to -0.16.

Compared with CAGGCAAA, GCGCTAAC is higher in “PBM E-score” value: -0.062 for the first, 0.0801 for the second.

Going from ATCGGAAC to ACCCCACG, the “PBM E-score” value rises from 0.0373 to 0.216.

Going from CCTGGACC to ACGTCTAC, the “PBM E-score” value falls from 0.0191 to -0.0979.

Compared with CCAGAGCG, AAATCCCC is higher in “PBM E-score” value: -0.297 for the first, -0.0456 for the second.

Compared with CTAACTAA, ATGCTCGC is lower in “PBM E-score” value: 0.0584 for the first, -0.245 for the second.

Going from AGCCTGAA to AACTTGGC, the “PBM E-score” value rises from -0.117 to -0.0515.

Going from ACTGACGG to ACTCCCTC, the “PBM E-score” value falls from -0.0593 to -0.107.

Compared with ACCATTGG, GACGCATA is lower in “PBM E-score” value: 0.176 for the first, -0.126 for the second.

Going from AACGCCTA to ACACACTC, the “PBM E-score” value rises from -0.0435 to -0.0362.

First: CATGAATA
Second: CATCGACA
The “PBM E-score” value of the first is higher: 0.0386 for the first, -0.0208 for the second.

Compared with ATCACACA, AAGTGTGG is lower in “PBM E-score” value: 0.164 for the first, 0.0823 for the second.
